Experimental data: the supplement of paper PMC4967469

Tests used:
Experiment in all cases: Viability of human cancer cell lines after 72 h of drug (GDSC screen)
TW-37 = compound: CC(C)c1ccccc1Cc1cc(C(=O)Nc2ccc(S(=O)(=O)c3ccccc3C(C)(C)C)cc2)c(O)c(O)c1O [TW-37]; conditions: top dose 5 µM
Procedure: (§1)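 Human cancer cell lines in 384-well plates, medium with 10% serum, drug for 72 h over a 256-fold dose range (nine 2-fold or five 4-fold steps up to the top dose). Adherent lines were fixed and stained with the nucleic acid dye Syto60, suspension lines read with resazurin; signal relative to control wells, capped at 0 and 100%. One two-parameter sigmoid per drug and line, fitted in a mixed model over all curves with the slope shared within a line.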

MP470 = compound: S=C(NCc1ccc2c(c1)OCO2)N1CCN(c2ncnc3c2oc2ccccc23)CC1 [MP470]; conditions: top dose 20 µM; top dose inferred
Procedure: as §1

Nilotinib = compound: Cc1cn(-c2cc(NC(=O)c3ccc(C)c(Nc4nccc(-c5cccnc5)n4)c3)cc(C(F)(F)F)c2)cn1 [Nilotinib]; conditions: top dose 2 µM
Procedure: as §1

KIN001-270 = compound: Cc1ccc(Nc2cc(-c3cccc(N4C(=O)c5ccccc5C4=O)c3)ncn2)cc1NS(C)(=O)=O [KIN001-270]; conditions: top dose 20 µM; top dose inferred
Procedure: as §1

Gemcitabine = compound: Nc1ccn([C@@H]2O[C@H](CO)[C@@H](O)C2(F)F)c(=O)n1 [Gemcitabine]; conditions: top dose 1.024 µM
Procedure: as §1

Bicalutamide = compound: CC(O)(CS(=O)(=O)c1ccc(F)cc1)C(=O)Nc1ccc(C#N)c(C(F)(F)F)c1 [Bicalutamide]; conditions: top dose inferred
Procedure: as §1

LFM-A13 = compound: C/C(O)=C(\C#N)C(=O)Nc1cc(Br)ccc1Br [LFM-A13]; conditions: top dose 16 µM; top dose inferred
Procedure: as §1

AUY922 = compound: CCNC(=O)c1noc(-c2cc(C(C)C)c(O)cc2O)c1-c1ccc(CN2CCOCC2)cc1 [AUY922]; conditions: top dose 0.256 µM; top dose inferred
Procedure: as §1

T0901317 = compound: O=S(=O)(c1ccccc1)N(CC(F)(F)F)c1ccc(C(O)(C(F)(F)F)C(F)(F)F)cc1 [T0901317]; conditions: top dose 10.24 µM; top dose inferred
Procedure: as §1

[1] = top dose 1.024 µM, screen: GDSC drug entry 150
[2] = top dose 10 µM, screen: GDSC drug entry 1502

Row | Cell Line | AUC (TW-37) | IC50 (TW-37) [nM] | AUC (MP470) | IC50 (MP470) [nM] | AUC (Nilotinib) | IC50 (Nilotinib) [nM] | AUC (KIN001-270) | IC50 (KIN001-270) [nM] | AUC (Gemcitabine) | IC50 (Gemcitabine) [nM] | AUC (Bicalutamide; [1]) | IC50 (Bicalutamide; [1]) [nM] | AUC (Bicalutamide; [2]) | IC50 (Bicalutamide; [2]) [nM] | AUC (LFM-A13) | IC50 (LFM-A13) [nM] | AUC (AUY922) | IC50 (AUY922) [nM] | AUC (T0901317) | IC50 (T0901317) [nM]
1 | HCC1419 (breast, adherent) | 0.634 | 856 | 0.848 | > 20000 | 0.953 | > 2000 | 0.971 | > 20000 | 0.96 | > 1020 | 0.977 | > 1020 | 0.965 | > 10000 | 0.947 | > 16000 | 0.686 | 66.6 | 0.981 | > 10200
2 | HCC1428 (breast, adherent) | 0.546 | 423 | 0.941 | > 20000 | 0.988 | > 2000 | 0.988 | > 20000 | 0.981 | > 1020 | 0.987 | > 1020 | 0.986 | > 10000 | 0.941 | > 16000 | 0.819 | 164 | 0.982 | > 10200
3 | HCC1500 (breast, adherent) | 0.876 | > 5000 | 0.622 | 2740 | 0.977 | > 2000 | 0.972 | > 20000 | 0.872 | > 1020 | 0.987 | > 1020 | 0.978 | > 10000 | 0.986 | > 16000 | 0.865 | 241 | 0.965 | > 10200
4 | HCC1569 (breast, adherent) | 0.824 | 4390 | 0.922 | > 20000 | 0.977 | > 2000 | 0.964 | > 20000 | 0.545 | 88.5 | 0.98 | > 1020 | 0.943 | > 10000 | 0.915 | > 16000 | 0.572 | 26.8 | 0.981 | > 10200
5 | HCC1954 (breast, adherent) | 0.684 | 1120 | 0.955 | > 20000 | 0.977 | > 2000 | 0.984 | > 20000 | 0.887 | > 1020 | 0.975 | > 1020 | 0.952 | > 10000 | 0.984 | > 16000 | 0.941 | > 256 | 0.98 | > 10200
6 | HCC2998 (large intestine, adherent) | 0.884 | > 5000 | 0.972 | > 20000 | 0.987 | > 2000 | 0.987 | > 20000 | 0.163 | 6.21 | 0.988 | > 1020 | – | – | 0.881 | > 16000 | 0.559 | 23 | 0.988 | > 10200
7 | HCC-15 (lung squamous cell carcinoma, adherent) | 0.608 | 673 | 0.972 | > 20000 | 0.919 | > 2000 | 0.978 | > 20000 | 0.682 | 241 | 0.981 | > 1020 | 0.96 | > 10000 | 0.936 | > 16000 | 0.654 | 48.7 | 0.961 | > 10200

IC50 is the fitted dose that halves viability relative to control wells, and lower means more sensitive; a fit beyond the top or the lowest dose is shown as a bound at that dose. The AUC spans the tested range (256-fold, ending at the top dose) of the same fit; values near 1 show little effect. For part of these data: Where the top dose is marked as inferred, it comes from the curve model; the source does not state it. For part of these data: An entry number marks a drug with two screens in the source, which often give different values.
